{"source": "the supplement of paper PMC8728848", "binders": {"B1": {"name": "FedF (Escherichia coli), Q47212 (protein)", "chain": "MRLKYILIIPLLLISLSVFASTLQVDKSVSYDWINSSASSAQVTGTLLGTGKTNTTQMPALYTWQHQIYNVNFIPSSSGTLTCQAGTILVWKNGRETQYALECRVSIHHSSGSINESQWGQQSQVGFGTACGNKKCRFTGFEISLRIPPNAQTYPLSSGDLKGSFSLTNKEVNWSASIYVPAIAKSYRLDTSITLPDTVNLKQNQATPVYYTFSAPSVSNTITGIPNQNDMPSSNVKLTIGPIQSKTTALYVQPDATGSWYDLSKSITMTVVKSSMLNFKGINAKPGNVTLSVPIVFEIQ"}}, "experiment_in_all_cases": "glycan array binding signal (z-score within array); higher = stronger binding", "conditions_in_all_cases": "glycan notation: IUPAC condensed, linker removed", "key": {"[1]": {"molecular_target": "Gal3S(b1-4)[Fuc(a1-3)]Glc", "method_in_brief": "(§1)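 The Consortium for Functional Glycomics database supplied 3228 glycan arrays, of which those lacking an available protein sequence were dropped. The binding signal, a within-array Z-score, was averaged across arrays of the same protein sequence and across linkers. Negative scores can be read as non-binding.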"}, "[2]": {"molecular_target": "Gal3S(b1-4)[Fuc(a1-3)]Glc6S", "method_in_brief": "as §1"}, "Gal3S4S(b1-4)GlcNAc": {"molecular_target": "Gal3S4S(b1-4)GlcNAc", "method_in_brief": "as §1"}, "Gal3S6S(b1-4)GlcNAc": {"molecular_target": "Gal3S6S(b1-4)GlcNAc", "method_in_brief": "as §1"}, "Gal3S6S(b1-4)GlcNAc6S": {"molecular_target": "Gal3S6S(b1-4)GlcNAc6S", "method_in_brief": "as §1"}, "Gal4S(b1-4)GlcNAc": {"molecular_target": "Gal4S(b1-4)GlcNAc", "method_in_brief": "as §1"}, "Gal4S6S(b1-4)GlcNAc": {"molecular_target": "Gal4S6S(b1-4)GlcNAc", "method_in_brief": "as §1"}, "Gal6S(b1-3)GlcNAc": {"molecular_target": "Gal6S(b1-3)GlcNAc", "method_in_brief": "as §1"}, "Gal6S(b1-3)GlcNAc6S": {"molecular_target": "Gal6S(b1-3)GlcNAc6S", "method_in_brief": "as §1"}, "Gal6S(b1-4)Glc": {"molecular_target": "Gal6S(b1-4)Glc", "method_in_brief": "as §1"}, "Gal6S(b1-4)Glc6S": {"molecular_target": "Gal6S(b1-4)Glc6S", "method_in_brief": "as §1"}, "Gal6S(b1-4)GlcNAc": {"molecular_target": "Gal6S(b1-4)GlcNAc", "method_in_brief": "as §1"}, "Gal6S(b1-4)GlcNAc6S": {"molecular_target": "Gal6S(b1-4)GlcNAc6S", "method_in_brief": "as §1"}, "GalNAc(a1-3)Gal": {"molecular_target": "GalNAc(a1-3)Gal", "method_in_brief": "as §1"}, "GalNAc(a1-3)GalNAc": {"molecular_target": "GalNAc(a1-3)GalNAc", "method_in_brief": "as §1"}, "[3]": {"molecular_target": "GalNAc(a1-3)GalNAc(b1-3)Gal(a1-4)Gal(b1-4)Glc", "method_in_brief": "as §1"}, "[4]": {"molecular_target": "GalNAc(a1-3)GalNAc(b1-3)Gal(a1-4)Gal(b1-4)GlcNAc", "method_in_brief": "as §1"}, "GalNAc(b1-3)Gal": {"molecular_target": "GalNAc(b1-3)Gal", "method_in_brief": "as §1"}, "[5]": {"molecular_target": "GalNAc(b1-3)Gal(a1-4)Gal(b1-4)GlcNAc", "method_in_brief": "as §1"}, "[6]": {"molecular_target": "GalNAc(b1-3)Gal(a1-4)Gal(b1-4)GlcNAc(b1-3)Gal(b1-4)Glc", "method_in_brief": "as §1"}, "[7]": {"molecular_target": "GalNAc(b1-3)Gal(a1-6)Gal(b1-4)Glc", "method_in_brief": "as §1"}, "GalNAc(b1-3)GalNAc": {"molecular_target": "GalNAc(b1-3)GalNAc", "method_in_brief": "as §1"}, "GalNAc(b1-4)Gal(b1-4)Glc": {"molecular_target": "GalNAc(b1-4)Gal(b1-4)Glc", "method_in_brief": "as §1"}, "GalNAc(b1-4)GlcNAc": {"molecular_target": "GalNAc(b1-4)GlcNAc", "method_in_brief": "as §1"}, "[8]": {"molecular_target": "GalNAc(b1-4)GlcNAc(b1-2)Man(a1-3)[GalNAc(b1-4)GlcNAc(b1-2)Man(a1-6)]Man(b1-4)GlcNAc(b1-4)GlcNAc", "method_in_brief": "as §1"}, "GalNAc(b1-6)GalNAc": {"molecular_target": "GalNAc(b1-6)GalNAc", "method_in_brief": "as §1"}, "Glc(a1-4)Glc": {"molecular_target": "Glc(a1-4)Glc", "method_in_brief": "as §1"}, "[9]": {"molecular_target": "Glc(a1-4)Glc(a1-4)Glc(a1-4)Glc", "method_in_brief": "as §1"}, "Glc(a1-6)Glc(a1-6)Glc": {"molecular_target": "Glc(a1-6)Glc(a1-6)Glc", "method_in_brief": "as §1"}, "[10]": {"molecular_target": "Glc(a1-6)Glc(a1-6)Glc(a1-6)Glc", "method_in_brief": "as §1"}, "Glc(b1-4)Glc": {"molecular_target": "Glc(b1-4)Glc", "method_in_brief": "as §1"}, "Glc(b1-6)Glc": {"molecular_target": "Glc(b1-6)Glc", "method_in_brief": "as §1"}, "GlcA(b1-3)Gal": {"molecular_target": "GlcA(b1-3)Gal", "method_in_brief": "as §1"}, "GlcA(b1-3)GlcNAc": {"molecular_target": "GlcA(b1-3)GlcNAc", "method_in_brief": "as §1"}, "GlcA(b1-6)Gal": {"molecular_target": "GlcA(b1-6)Gal", "method_in_brief": "as §1"}, "[11]": {"molecular_target": "GlcNAc(a1-3)Gal(b1-4)GlcNAc", "method_in_brief": "as §1"}, "[12]": {"molecular_target": "GlcNAc(a1-4)Gal(b1-3)GlcNAc", "method_in_brief": "as §1"}, "[13]": {"molecular_target": "GlcNAc(a1-4)Gal(b1-4)GalNAc", "method_in_brief": "as §1"}}, "note": "This is one part of the list."}
{"binder": "B1", "values": [{"measurement": "glycan array binding signal (z-score)", "setting": "[1]", "value": -0.151}, {"measurement": "glycan array binding signal (z-score)", "setting": "[2]", "value": 0.114}, {"measurement": "glycan array binding signal (z-score)", "setting": "Gal3S4S(b1-4)GlcNAc", "value": -0.156}, {"measurement": "glycan array binding signal (z-score)", "setting": "Gal3S6S(b1-4)GlcNAc", "value": 0.537}, {"measurement": "glycan array binding signal (z-score)", "setting": "Gal3S6S(b1-4)GlcNAc6S", "value": 1.97}, {"measurement": "glycan array binding signal (z-score)", "setting": "Gal4S(b1-4)GlcNAc", "value": 0.01}, {"measurement": "glycan array binding signal (z-score)", "setting": "Gal4S6S(b1-4)GlcNAc", "value": 0.385}, {"measurement": "glycan array binding signal (z-score)", "setting": "Gal6S(b1-3)GlcNAc", "value": -0.141}, {"measurement": "glycan array binding signal (z-score)", "setting": "Gal6S(b1-3)GlcNAc6S", "value": -0.166}, {"measurement": "glycan array binding signal (z-score)", "setting": "Gal6S(b1-4)Glc", "value": 0.175}, {"measurement": "glycan array binding signal (z-score)", "setting": "Gal6S(b1-4)Glc6S", "value": 0.578}, {"measurement": "glycan array binding signal (z-score)", "setting": "Gal6S(b1-4)GlcNAc", "value": 0.402}, {"measurement": "glycan array binding signal (z-score)", "setting": "Gal6S(b1-4)GlcNAc6S", "value": -0.171}, {"measurement": "glycan array binding signal (z-score)", "setting": "GalNAc(a1-3)Gal", "value": 0.327}, {"measurement": "glycan array binding signal (z-score)", "setting": "GalNAc(a1-3)GalNAc", "value": 0.597}, {"measurement": "glycan array binding signal (z-score)", "setting": "[3]", "value": -0.192}, {"measurement": "glycan array binding signal (z-score)", "setting": "[4]", "value": 0.086}, {"measurement": "glycan array binding signal (z-score)", "setting": "GalNAc(b1-3)Gal", "value": 0.035}, {"measurement": "glycan array binding signal (z-score)", "setting": "[5]", "value": -0.261}, {"measurement": "glycan array binding signal (z-score)", "setting": "[6]", "value": -0.156}, {"measurement": "glycan array binding signal (z-score)", "setting": "[7]", "value": -0.124}, {"measurement": "glycan array binding signal (z-score)", "setting": "GalNAc(b1-3)GalNAc", "value": -0.237}, {"measurement": "glycan array binding signal (z-score)", "setting": "GalNAc(b1-4)Gal(b1-4)Glc", "value": -0.151}, {"measurement": "glycan array binding signal (z-score)", "setting": "GalNAc(b1-4)GlcNAc", "value": -0.232}, {"measurement": "glycan array binding signal (z-score)", "setting": "[8]", "value": -0.129}, {"measurement": "glycan array binding signal (z-score)", "setting": "GalNAc(b1-6)GalNAc", "value": -0.207}, {"measurement": "glycan array binding signal (z-score)", "setting": "Glc(a1-4)Glc", "value": -0.113}, {"measurement": "glycan array binding signal (z-score)", "setting": "[9]", "value": -0.139}, {"measurement": "glycan array binding signal (z-score)", "setting": "Glc(a1-6)Glc(a1-6)Glc", "value": -0.456}, {"measurement": "glycan array binding signal (z-score)", "setting": "[10]", "value": 0.629}, {"measurement": "glycan array binding signal (z-score)", "setting": "Glc(b1-4)Glc", "value": -0.363}, {"measurement": "glycan array binding signal (z-score)", "setting": "Glc(b1-6)Glc", "value": -0.196}, {"measurement": "glycan array binding signal (z-score)", "setting": "GlcA(b1-3)Gal", "value": 0.136}, {"measurement": "glycan array binding signal (z-score)", "setting": "GlcA(b1-3)GlcNAc", "value": -0.192}, {"measurement": "glycan array binding signal (z-score)", "setting": "GlcA(b1-6)Gal", "value": -0.02}, {"measurement": "glycan array binding signal (z-score)", "setting": "[11]", "value": -0.469}, {"measurement": "glycan array binding signal (z-score)", "setting": "[12]", "value": -0.084}, {"measurement": "glycan array binding signal (z-score)", "setting": "[13]", "value": -0.051}]}
